Some of the results follow. Cleavage of a single-stranded DNA pool by Rep nickase domains was read by sequencing (1 h at 37 °C, 3 µM enzyme); the outer parts of the 90-letter strands are left off. Uncut reads are compared with the no-enzyme pool on a log2 scale; uncut sequences lie near 0, cut ones below; no hit call is given. Counts are relative to all reads; values above 0 arise when much of the pool is cut.
Columns and labels:
Assay in all cases: uncleaved DNA left, log2 of reads against the no-enzyme library (log2 ratio); higher = less cleavage (more negative = more Rep cleavage of the k-mer); sequences stand for … in CTCGTCCG…ACCGGAGA
[1] = system: T1, Rep nickase domain of Muscovy duck circovirus
T1 sequence (residues 1-111 of Rep, tag left off): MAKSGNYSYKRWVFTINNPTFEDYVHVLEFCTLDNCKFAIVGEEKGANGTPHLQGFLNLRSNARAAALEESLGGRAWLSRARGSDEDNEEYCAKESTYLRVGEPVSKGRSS
Method: (§1)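 A pool of 90-nt single-stranded DNAs with seven random bases just before the constant AC of the nick site (name = the seven bases) was cut by 3 µM recombinant His6-SUMO-tagged Rep nickase domain (300 nM DNA, 50 mM HEPES pH 8.0, 50 mM NaCl, 1 mM MnCl2, 1 h, 37 °C, three replicates). Uncut DNA was amplified and sequenced.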

[2] = system: T2, Rep nickase domain of banana bunchy top virus
T2 sequence (residues 1-94 of Rep, tag left off): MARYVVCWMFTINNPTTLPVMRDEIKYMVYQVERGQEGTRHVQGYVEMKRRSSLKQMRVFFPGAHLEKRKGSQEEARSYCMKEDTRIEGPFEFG
Method: as §1

[3] = system: T3, Rep nickase domain of cabbage leaf curl virus
T3 sequence (residues 1-116 of Rep, tag left off): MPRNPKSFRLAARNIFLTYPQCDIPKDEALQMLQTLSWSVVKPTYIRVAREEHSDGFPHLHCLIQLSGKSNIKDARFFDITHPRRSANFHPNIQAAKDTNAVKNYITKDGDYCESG
Method: as §1

[4] = system: T4, Rep nickase domain of chickpea chlorotic dwarf virus
T4 sequence (residues 1-124 of Rep, tag left off): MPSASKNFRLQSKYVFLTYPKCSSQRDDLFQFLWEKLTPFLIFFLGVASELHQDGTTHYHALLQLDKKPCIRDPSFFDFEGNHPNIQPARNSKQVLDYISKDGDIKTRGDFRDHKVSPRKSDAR
Method: as §1

[5] = system: T5, Rep nickase domain of faba bean necrotic yellows virus
T5 sequence (residues 1-98 of Rep, tag left off): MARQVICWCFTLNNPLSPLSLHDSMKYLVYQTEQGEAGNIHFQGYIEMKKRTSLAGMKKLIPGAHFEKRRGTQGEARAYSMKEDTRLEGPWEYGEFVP
Method: as §1

[6] = system: T6, Rep nickase domain of maize striate mosaic virus
T6 sequence (residues 1-117 of Rep, tag left off): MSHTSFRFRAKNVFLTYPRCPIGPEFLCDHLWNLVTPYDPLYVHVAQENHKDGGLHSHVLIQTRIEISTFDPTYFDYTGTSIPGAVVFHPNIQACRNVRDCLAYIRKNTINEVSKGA
Method: as §1

[7] = system: T7, Rep nickase domain of porcine circovirus 2
T7 sequence (residues 2-116 of Rep, tag left off): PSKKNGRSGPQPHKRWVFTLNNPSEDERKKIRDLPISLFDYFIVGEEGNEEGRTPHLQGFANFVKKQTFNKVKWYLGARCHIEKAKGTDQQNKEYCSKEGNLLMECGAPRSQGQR
Method: as §1

[8] = system: T8, Rep nickase domain of tomato golden mosaic virus
T8 sequence (residues 1-124 of Rep, tag left off): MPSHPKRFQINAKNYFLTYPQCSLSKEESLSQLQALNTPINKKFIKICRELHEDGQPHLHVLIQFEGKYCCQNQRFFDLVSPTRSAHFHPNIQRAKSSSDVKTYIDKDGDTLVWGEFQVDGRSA
Method: as §1

[9] = system: T9, Rep nickase domain of tomato yellow leaf curl virus
T9 sequence (residues 1-136 of Rep, tag left off): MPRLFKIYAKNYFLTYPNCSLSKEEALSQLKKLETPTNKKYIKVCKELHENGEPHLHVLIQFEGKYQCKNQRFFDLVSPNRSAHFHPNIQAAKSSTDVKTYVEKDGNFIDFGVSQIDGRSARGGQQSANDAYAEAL
Method: as §1

[10] = system: T10, Rep nickase domain of wheat dwarf virus
T10 sequence (residues 1-137 of Rep, tag left off): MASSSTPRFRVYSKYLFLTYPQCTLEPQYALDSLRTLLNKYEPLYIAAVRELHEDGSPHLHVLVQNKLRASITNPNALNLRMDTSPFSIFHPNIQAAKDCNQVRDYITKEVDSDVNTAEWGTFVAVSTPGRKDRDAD
Method: as §1

Sequence	uncleaved DNA left (log2) [1]	uncleaved DNA left (log2) [2]	uncleaved DNA left (log2) [3]	uncleaved DNA left (log2) [4]	uncleaved DNA left (log2) [5]	uncleaved DNA left (log2) [6]	uncleaved DNA left (log2) [7]	uncleaved DNA left (log2) [8]	uncleaved DNA left (log2) [9]	uncleaved DNA left (log2) [10]
AGTTAGT	-2.61	-0.887	-0.574	-0.857	-0.139	-1.02	-4.03	-0.121	0.0336	-0.195
TCGGGAT	0.0474	0.106	0.357	1.64	0.0157	1.98	0.198	0.172	-0.02	0.032
GTCGCTC	-0.0119	0.142	0.528	1.67	0.0591	1.6	0.0849	0.145	-0.00586	0.0034
GCGCGTT	-0.161	-0.0623	-0.224	-0.522	-0.139	-0.492	-0.142	-0.00653	-0.0564	-0.0332
ACAGCGT	-0.0392	-0.182	-0.456	0.51	-0.0257	0.00976	0.0973	-0.00232	-0.077	-0.165
GCGGGGT	0.0625	0.0971	0.499	1.01	0.0215	1.71	0.197	0.0748	0.00921	0.163
TGCCATT	-0.00226	-0.0256	0.237	-0.584	-0.0122	0.0913	-0.185	-0.0743	-0.0294	0.171
ATAGTCA	0.0902	0.0222	-0.00148	-1.27	0.111	-0.569	0.0647	0.0796	0.124	0.151
CCACGGC	0.0726	0.0544	-0.0352	-0.301	0.126	-0.639	0.0862	-0.0608	-0.000974	-0.0318
AGAACGA	0.0118	0.0103	-0.0445	-0.0445	-0.0071	-0.664	0.136	0.047	0.0116	-0.0524
AAGGAAG	0.0438	-0.0246	-0.324	-0.162	0.054	-0.98	0.205	0.134	-0.117	-0.0657
TAAGGGC	0.072	0.121	0.342	0.72	0.135	0.503	0.00263	0.141	0.055	0.113
CCTGATG	0.113	-0.0173	-0.0606	0.0101	0.364	-0.636	0.16	0.172	0.157	0.108
CGTCGGT	0.125	0.0191	0.251	0.437	0.11	0.633	0.0364	0.0958	-0.017	0.0087
TTTGTAC	-0.0781	-0.0673	-0.0446	-0.606	-0.0785	-0.667	-0.114	-0.0807	-0.034	-0.0319
TTCCGGC	0.0541	-0.0811	0.214	0.25	-0.038	0.324	0.102	-0.0287	-0.0486	-0.0241
TGCCAAG	-0.266	-0.229	-0.671	-0.593	-0.137	-0.949	-0.0977	-0.0175	-0.205	-0.117
AATCAAC	-0.0795	-0.075	-0.0729	-1.5	0.0169	-0.586	0.0281	-0.0903	-0.00604	0.0445
CGAATCT	0.109	0.0407	-0.171	-1.56	0.0576	-0.204	-0.0446	-0.0236	-0.0608	0.0592
ACCCTTC	-0.128	-0.0199	-0.0634	-0.169	0.057	-0.62	0.0899	-0.0217	-0.091	-0.0443
GTAAGAG	0.0397	0.0908	-0.11	-0.118	0.0615	-0.583	0.048	0.0305	0.0144	0.0293
GTCAGTG	0.032	0.102	0.0435	0.464	-0.0105	0.483	0.0939	0.113	0.144	-0.0119
GACGTTC	-0.0531	-0.00432	0.598	0.98	-0.0115	1.73	0.131	0.0232	0.00363	0.0366
GGTTCCG	0.0398	-0.00564	-0.123	-0.116	-0.0322	-0.395	0.166	0.00171	-0.0278	0.0048
GTGTGGG	-0.0207	-0.185	-0.278	-0.18	-0.149	-0.412	0.0106	-0.0138	-0.0469	-0.181
CGGAGCG	-0.011	-0.0261	-0.751	-0.658	-0.0609	-1.11	0.142	-0.0538	0.0575	-0.179
ATCATAA	0.214	0.0759	-0.0068	-0.164	0.232	-0.786	0.224	0.0914	0.123	0.0925
ATTTTGT	-0.62	-0.372	-0.394	-0.99	-0.00681	-1.26	-1.14	-0.127	-0.00771	-0.136
GCGAACG	0.0605	0.0221	-0.187	-0.131	0.0267	-0.437	0.0604	0.0334	0.00482	-0.152
ATGCCTG	-0.0501	-0.181	-0.0752	0.471	-0.0188	1.03	-0.0307	-0.0835	-0.205	-0.0819

— the supplement of paper PMC7826260
